Measured values: PMC10726135
The list shows a part of the results. At the low end of the ranking the order means little. Measured with an extract: partners may take part in the binding.

Molecular target: T1, HNF4alpha2 (COS-7 nuclear extract) (UniProt P41235)
T1 sequence: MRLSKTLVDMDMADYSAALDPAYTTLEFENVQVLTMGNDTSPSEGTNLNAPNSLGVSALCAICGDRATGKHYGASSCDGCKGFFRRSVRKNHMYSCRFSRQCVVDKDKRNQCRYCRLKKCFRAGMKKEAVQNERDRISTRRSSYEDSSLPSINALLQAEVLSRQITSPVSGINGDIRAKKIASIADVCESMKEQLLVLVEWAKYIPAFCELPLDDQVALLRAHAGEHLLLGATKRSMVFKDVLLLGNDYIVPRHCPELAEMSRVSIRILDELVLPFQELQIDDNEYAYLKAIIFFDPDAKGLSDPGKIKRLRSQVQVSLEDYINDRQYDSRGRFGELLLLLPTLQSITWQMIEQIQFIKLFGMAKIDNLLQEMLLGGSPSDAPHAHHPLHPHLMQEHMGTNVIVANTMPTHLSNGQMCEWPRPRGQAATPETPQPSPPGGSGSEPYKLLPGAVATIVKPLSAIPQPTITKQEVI
Assay: protein-binding microarray
Settings: COS-7 nuclear extract on double-stranded Agilent 4x180k PBM; binding buffer, salt, pH and temperature not given; high values mean tight binding; double strand, one strand shown; sequences stand for … in …GCCTAGGGAGATTAGAGTATCGGTCGA

| Sequence | binding signal (log2 normalized intensity) |
| --- | --- |
| AGTATAATAAAGTGGCAACCCTTGACCCCA | 5.82 |
| CGGCAGAGCACCTGGATAAGCCAGATAATT | -1.3 |
| AATGACATTTTGGACTACTTCATGTCCTGT | 0.916 |
| GCAAGACCAAACAAAATTAATGTGCCTGCC | -1.16 |
| CCTGGCTTGTTTGCAAAGCAACTCCTCTGT | 0.697 |
| ACAAGGCAGACTTGGATTTTCTCATCCCAG | -1.05 |
| TTGTAGGGGGAGGGTAAATATAGTTAAAGC | -0.764 |
| TCTAGGTCACCACCTTTTTTGGCCTTTACC | 1.84 |
| AGGTGGGGGCCGCCCATTGGGATCCATATC | -1.06 |
| TATCAAGGGTGAGGGATTTTCAGTATACTG | -0.322 |
| CTTCCCCACCCCCTCTCCTCCCTCGGCCGG | 5.88 |
| CTTAAAAAAAAAGAACAGCTTTGGTATTAC | -1.07 |
| ATGGCCACCCTTCAGCAAATAGTGGGAGGT | -0.331 |
| TTTTATTATATTGAATTCCTGGAAATCCCG | -0.687 |
| CTGGAACCAACATGGCAGACAGCAGTCTGA | -1.2 |
| ATGCTGCTCTCCCACTCCCCCTGCTGGACA | 3.93 |
| GAAGTAAAACAGGTAGAGAGCTGTCTGCTG | -1.04 |
| TATCTTGTCTCTTCTTGTACCTCTGGTGAT | 1.77 |
| AAGGTAGGCAGAGAGGCTGCTCAGTTTAAG | -0.88 |
| CAGGACTCTGGGACCGCAGGGGGCTCCCGG | -1.16 |
| AAGATGGGCATTAGGTGGACAGGGGTGTGT | 1.78 |
| TTGGCAAGTTAATGTGGCCTAATGTTTGTG | 1.61 |
| CTCTCATAAAAGAGGCCAATTTCTTGTCTG | -0.124 |
| CACAGGAAAGGAGACTAAAGGTCAAAACCA | 3.38 |
| CACTCCCAGTCCAGATATAGGGGAGGTCCT | -1.05 |

| Sequence | binding signal (log2 normalized intensity) |
| --- | --- |
| ATTATGCACCCGTGGTTGATCAAAGGTTGG | 2.95 |
| AATAAGCATTCTGTTTCCTACTGACCTCCG | 2.41 |
| AGTGTAAGGACATTGCCCCCTATGTAAAGG | 3.28 |
| GGGTTACCGGCAGAGAGAAGCCACTGCGAC | -1.07 |
| GTACTATGACCCAAACTTCACAAAAATGAG | 1.22 |
| TTCCCAAGAAGAGCCCAGACAAGCATTCTG | -0.922 |
| TGAGACCTGTGATGGTCACTATCTGGGCCA | 0.388 |
| CCAGCAGATGAGCCTGTTGGGAGCCAGGCA | -1.1 |
| CAAACAAATGCCATAGTCCAAAGTGGCAGT | 1.08 |
| ACCTTTGCCCTTGACTTTTTGTGGGGGCAG | 2.38 |
| GTCAAGTAGAGACCTGTCTTCCTGGTGACC | 2.19 |
| TGTGTGTGTGTGTGTGTCTGTGTGTGTGTG | 3.59 |
| CCTATCTGGTGCAGTCCAAGAGGCCCAGGT | -1.19 |
| TCTGCAAGGCAACTGACCTTTGGATCTGGG | 7.21 |
| GACCCAGGAGGAGAAGGGTGGGAATTGGGA | -1.1 |
| CAGGCCGGCTTGCGTCCCCAGGTGAACTCA | 1.41 |
| TCACAATTAAGCCAAACTTGGGTTTATGGC | 0.583 |
| AAGGAGATTCCTGTGTCAGCAGAAGGCCCC | 0.716 |
| CCCAGGTCCAGCCTTTGGGCAGGGGCATCC | -0.72 |
| CAGTGGTAACCACAGTACTGTCTTTTTGCC | -0.854 |
| GAGTTCTTCAAGTCAGTCAAAATGAATAGT | 1.32 |
| AAGCACATACTTCTTCCTGTTTGACCTTCG | 5.02 |
| CTCTGGGAGGGAGGAGCACAGAAGGAGAGA | -1.19 |
| TCTTACAACATAGTGATTTAGGCTTTTGGG | 0.323 |
| AAGCAGAGGGCGAGAAGTAGGTGCAAGGGA | -1.19 |

| Sequence | binding signal (log2 normalized intensity) |
| --- | --- |
| GCAGTAGTGCGATGATCATGGCTCACTGCA | -1.17 |
| ACAAAACATTTGGTGTAAGCACTTGTGGTA | 0.863 |
| ATCAAACCTGTTATTTGCGCCTCCCTAGAG | -1.09 |
| AGAGATTTTCACATGGAATGTCGTGCCCTA | 1.21 |
| AGGTTTCAGAGGCTCACAGAGAGGCTTCTG | -0.726 |
| CTCCCGCAGCATACACTTTCCGTACTTTTC | 0.833 |
| GACTCCAGTGATCTTATCGCCTAGTACTCC | -0.841 |
| ATCTCTGATGCCCTTTGGCCTTTCTAATTA | 5.13 |
| TCCCCTTTCTGTTGGAAGCTGATAAGCCAA | 0.944 |
| GCCCTGCCACCCCCGTTAATTTCTAACCAA | 2.5 |
| CTTGTTGGTAACCGGAGCAAAGGTTACTCT | 4.05 |
| CATTGCATGTGCATTTCACAATAGGGTTCA | 2.46 |
| CTCTCCCTCCAGGCCCCAGCCACGCCCTCT | 3.65 |
| AGCTTTATCTCTCCCCCACCACTGCTTCCT | 3.82 |
| GCATCAGCCGGTGCAAAGGCCTTAAAGTGT | -0.275 |
| GACCTTTGGACTTGATAGAGTTTAAGTCTT | 6.99 |
| TTCTCCAGGAAGTTCAGGCCTCGGCTTCAT | -0.98 |
| TGCAGCCCTGCCACTCTTTTTTAGACTTTG | 3.72 |
| TCAGGTGTTGCTCTCTTGCCATTCGTGGAT | 1.29 |
| CTATTTGCTAATGTCCTTTGGAGTGCTTTC | 2.17 |
| GTTAGGTTGTGATACCCTCATTTTAGAGAT | 0.582 |
| TTGGACTCTATAGCCTATGCTTTGTATTTT | 2.66 |
| GAGGGATTACCCTATGTCCCCCGACCCGCC | 4.97 |
